“Also recorded” adds a separate entry of the source.
B1: Glychr19.trna2: top performing glycine ACE-tRNA UGA suppressor, SEQ ID NO: 53 (nucleic acid)
chain: GCGTTGGTGGTATAGTGGTTAGCATAGCTGCCTTCAAAGCAGTTGACCCGGGTTCGATTCCCGGCCAACGCA
modifications: chemistry not fully specified

How the values were obtained:
[1] = test system: NLuc-UGA PTC; assay: NanoLuc nonsense reporter screen (all-in-one HTC plasmid), TGA/UGA PTC, HEK293 cells; type: cell-based, human; settings: transiently transfected HEK293 cells
Excerpt: Several different nonsense mutations cause CF, thus underlying roughly 10% of all CF disease. FIG. 7. These cases are concentrated into […] specific genetic lesions: E60X, R75X, G542X, R553X, Q890X, Y1092X, R1158X, R1162X and W1282X. A screen was developed to screen existing human tRNA sequences for modification and tolerance to anti-codon editing. To this end, roughly 144 ACE-tRNAs were candidates to test for those that could be used to promote the repair of the disease causative nonsense codon and the expression of the full-length protein. Specifically, using the scheme described in FIG. 11, tRNA libraries were generated to identify novel tRNA sequences that encode for ACE tRNA with the ability to repair the top CF causative nonsense mutations. Specifically, 10 ng of annealed oligos encoding the ACE-tRNAs were combined with 50 ng of NanoLuc reporter plasmid, 1 μl 10×CutSmart Buffer (NEB), 1 μl T4 ligase (NEB), 10 mM ATP and 1 μl BbsI (NEB) and cycled in a thermocycler as described in FIG. 11. 1 μl of the reaction was transformed into competent E. coli and the transformants were plated on ampicillin agar plates. […]
Screening studies were first performed to identify the best ACE-tRNA Candidates from tryptophan and glycine. […] Plates were read on a SpectraMax i3 (Molecular Devices). […]

[2] = test system: NLuc-UGA stably expressed in HEK293 cells; assay: PTC suppression in HEK293 cells stably expressing NLuc-UGA (cDNA or RNA delivery, versus aminoglycosides); type: cell-based, human; settings: for rescue of stably expressed NLuc-UGA by ACE-tRNA delivered as RNA versus cDNA: RNA transcripts transfected with lipofectamine 2000; for suppression of stably expressed NLuc-UGA compared with gentamicin and G418: gentamicin 40 μM, G418 140 μM (150 uM in FIG. 32), 24 or 48 hours
Protocol: In vitro tRNA transcription. […] Equimolar concentration of T7 oligo (5)-taatacgactcactata-3′) was annealed to ACE-tRNA PAGE-purified Ultramers (20 ug; Integrated DNA Technologies, Coralville, Iowa) coding for the ACE-tRNA and preceded by a T7 promoter (italics). Importantly, the three terminal nucleotides containing CCA were included (bold).
The total reaction volume was adjusted to 100 μl and the kit reagents were added in the following amounts: 10 μl of 10X T7-Scribe transcription buffer, 7.5 μl of each nucleotide (100 mM stocks), 10 μl of 100 mM Dithiothreitol, 2.5 μl ScriptGuard RNase Inhibitor, 10 μl T7-Scribe enzyme solution. After the reaction was incubated for 4-5 hours at 37° C., the DNA template was digested with 5 μl DNase (1 U/μl) provided with the kit for 30-60 min. The ACE-tRNA was extracted from the reaction with acidic phenol chloroform (5:1, pH 4.5) and precipitated with ethanol. The precipitates ACE-tRNA was pelleted, washed, dried and resuspended in 100 μl DEPC-treated water and further purified with Chrorna Spin-30 columns (Clontech, USA). The procedure yielded roughly 100 μl of ˜5 μg/μl ACE-tRNA. ACE-tRNAs were re-pelleted in 20 ug aliquots, washed, lyophilized and stored at −80° C. until use. All results were generated from ≥2 ACE-tRNA preparations.
Generation of stable N Luc reporter cell lines.
RNA transfection. […] 16-24 hours later the cells were transfected with ACE-tRNAs using lipofectamine 2000 (ThermoFisher Scientific, USA). Briefly, 3 μg of ACE-tRNA were suspended in 1500 of OptiMEM and 120 of Lipofectamine 2000 was mixed with 150 μl of OptiMEM. The volumes were combined, thoroughly mixed and incubated for 10 mins at RT. 75 μl of the transfection complex was added to each well. PTC suppression by ACE-tRNA transcripts was quantified as described above.
The in vivo activity and stability of ACE-tRNA was examined. The NLuc-UGA PTC reporter cDNA was delivered together with a plasmid encoding four copies of the ACE-tRNA^Arg UGA or an ‘empty vector control’ into mouse skeletal muscle (tibialis anterior) using electroporation (Wheeler et al., 2009, Science, 325, 336-339; Wheeler et al., 2007, J Clin Invest, 117, 3952-3957; Muthumani et al., 2017, Cancer Immunol Immunother, 66, 1577-1588). […] The signal from the NLuc-UGA plasmid and non-electroporated muscle was undetectable. Further, ACE-tRNA^Arg suppression activity was stable, as evidenced by the similar duration of NLuc activity between rescued and WT protein, FIG. 34B. Furthermore, this duration and intensity of luciferase expression argues in favor of a high in vivo tolerability and negligible repercussion of increased readthrough observed with ACE-tRNA^Arg. […]

Molecule	stop codon selectivity (NanoLuc TGA, TAA or TAG reporter) ([1]; listed as ACE-tRNA^Trp)	rescue of stably expressed NLuc-UGA by ACE-tRNA delivered as RNA versus cDNA [2]	suppression of stably expressed NLuc-UGA compared with gentamicin and G418 [2]	stop codon selectivity (NanoLuc TGA, TAA or TAG reporter) ([1]; listed as ACE-tRNA^Gly)	suppression of stably expressed NLuc-UGA compared with gentamicin and G418 ([2]; listed as ACE-tRNA^Gly)
Trpchr17.trna39: top performing tryptophan ACE-tRNA UGA suppressor, SEQ ID NO: 48	retained selectivity for the UGA stop codon, over UAA and UAG	comparable fold rescue when delivered as small RNA	exceeded PTC rescue compared to G418	–	–
B1	–	comparable fold rescue when delivered as small RNA	–	retained selectivity for the UGA stop codon, over UAA and UAG	outperformed the conventional small molecule suppressors gentamicin (40 μM) and G418 (140 μM); also recorded: outperforms both gentamicin (40 uM) and G418 (140 uM)

— patent US20230203482A1, “Methods of Rescuing Stop Codons via Genetic Reassignment with ACE-tRNA” (THE WISTAR INSTITUTE OF ANATOMY AND BIOLOGY, priority 2017, published 2023)
